Results reported in PubChem BioAssay AID686979 (National Center for Advancing Translational Sciences (NCATS), 2013).
In all, about 420,000 compounds went through this assay and about 50,000 (12%) were called active. The inconclusive results got no clear call from the source; some entries with a clear call stand among them for comparison. Calls come from the whole dose curve; as a rule, active = well fitted inhibition curve with a large enough effect; inconclusive = small, poorly fitted or top-dose-only effect; inactive = flat fitted curve, though single readings scatter. No potency is given beside an inconclusive call; the fits are too rough.

Experiment: qHTS for Inhibitors of human tyrosyl-DNA phosphodiesterase 1 (TDP1): qHTS in cells in presence of CPT; note: nearly all actives have a fitted effect of over 55% in size
Conditions: chicken DT40 Tdp1-/-;hTDP1 cells + 20 nM CPT, ATP luminescence, 48 h; activity change, negative = growth inhibition: at 46.2 µM (top of the series)
In short: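 Chicken DT40 Tdp1-/- cells complemented with human TDP1, 400 cells/well, exposed to compounds plus 20 nM camptothecin for at least 48 h at 37 C; viability read as ATP content by CellTiter-Glo luminescence.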
% is set by controls: 0 for no effect and ±100 for the full control effect; potency is the fitted concentration of half-maximal effect; tags give direction and shape of the fitted curve.

Row | SMILES | activity change, negative = growth inhibition | Potency
1 | Cc1ccc(N2C(=O)C3C(C2=O)C2C=CC3C23CC3)c([N+](=O)[O-])c1 (configuration not stated) | inactive: 19.7% | 
2 | COc1cccc(-c2nn(-c3ccccc3)cc2CN(C)Cc2c(C)nc3ccccn23)c1 |  | inconclusive [inhibitor, single point]
3 | CCC1CCC(c2nnc(-c3ccc(Br)cc3)o2)CC1 (configuration not stated) | inactive: -24.4% | 
4 | C=C(C)c1cccc(C(C)(C)NC(=O)N2CCC(C(N)=O)CC2)c1 | inactive: 0.848% | 
5 | CCN(CC)CCOc1c(Br)ccc2c1sc1nc3n(c(=O)c12)CCC3 |  | inconclusive [inhibitor, single point]
6 | COc1ccc2nc(SCC(=O)Nc3ccccc3OC)[nH]c2c1 | inactive: -2.49% | 
7 | COc1ccc(Br)cc1/C=C/C(=O)c1ccc(NC(C)=O)cc1 |  | active: 5.8 µM
8 | CCS(=O)(=O)c1ncc(Cl)c(C(=O)NCc2ccccc2)n1 |  | inconclusive [inhibitor, partial curve, poor fit]
9 | NC(=S)N/N=C/c1cccc(O)c1O |  | active: 0.58 µM
10 | CC1CCCN(S(=O)(=O)c2ccc(NC(=O)[C@@H]3CCCN3C(=O)c3cccs3)cc2)C1 (some centres not stated) |  | inconclusive [inhibitor, single point]
11 | OC(c1cc(-c2cccc(Cl)c2)nc2ccccc12)C1CCCCN1 (configuration not stated) |  | active: 16.4 µM
12 | N#Cc1cc2c(nc1Cl)CCCC2 | inactive: -0.689% | 
13 | Cc1cccc(C)c1NC(=O)Cn1nnnc1N | inactive: -6.92% | 
14 | Cc1nn(-c2ccccc2)c(C)c1NC(=O)COC(=O)c1ccc(NC(=O)CC#N)cc1 | inactive: 12.4% | 
15 | Cc1nc2ccccc2nc(C)c1=NOCc1cccc(F)c1 |  | inconclusive [inhibitor, partial curve]
16 | Cc1ccccc1Nc1cc(=O)oc2ccccc12 |  | active: 11.6 µM
17 | Cc1ccc(C)n1-c1nc(=S)[nH][nH]1 | inactive: -19% | 
18 | COC(=O)C1=C(C)N(c2cccc(OC)c2)C(=O)/C1=C\c1ccco1 |  | inconclusive [inhibitor, partial curve]
19 | Cc1ccc[n+](CC(=O)Nc2ccc([N+](=O)[O-])cc2)c1 |  | active: 10.3 µM
20 | CC1=CC(=O)C(C(C)C)=C/C1=C(\c1cc(C(C)C)c(OP(=O)(O)O)cc1C)c1ccccc1C(=O)O |  | inconclusive [inhibitor, single point]
21 | Cc1ccccc1CN1[C@H]2CCCC[C@@H]2OCCS1(=O)=O |  | inconclusive [inhibitor, single point]
22 | COc1ccccc1CNC(=O)c1cccc(S(=O)(=O)N2CCN(c3ccc(F)cc3)CC2)c1 |  | inconclusive [inhibitor, single point]
23 | CCOC(=O)C1CCCC(NS(=O)(=O)c2ccc(NC(C)=O)cc2)C1 (configuration not stated) |  | inconclusive [inhibitor, partial curve]
24 | CC1=C(C(=O)OC(C)C)C(c2cn(-c3ccccc3)nc2-c2cccs2)NC(=O)N1 (configuration not stated) |  | inconclusive [inhibitor, single point]

Row | SMILES | activity change, negative = growth inhibition | Potency
25 | CCN(CC)C(=O)CSc1nnc(-c2cccs2)n1Cc1ccco1 | inactive: -12.7% | 
26 | O=C1NC(c2ccccc2)=C(c2ccccc2)C1=O | inactive: -12% | 
27 | CC(=O)N/C(=C\c1ccc(C)o1)C(=O)NCc1ccccc1 | inactive: 22.4% | 
28 | N#Cc1ccccc1S(=O)(=O)N1CCN(Cc2c(O)ccc3ccccc23)CC1 |  | inconclusive [inhibitor, single point]
29 | Cc1ccc(NC(=O)C(=O)c2c(-c3ccccc3)cc3ccccn23)cc1S(=O)(=O)N1CCOCC1 |  | inconclusive [inhibitor, single point]
30 | CN(C)CCCN(C(=O)c1ccc(S(=O)(=O)N2CCc3ccccc32)cc1)c1nc2ccc(F)cc2s1 |  | inconclusive [inhibitor, single point]
31 | CCCc1cc(=O)[nH]c(SCC(=O)Nc2sc(C(N)=O)c(C)c2C(=O)OCCOC)n1 |  | inconclusive [inhibitor, single point]
32 | CC(C)Sc1nnc([C@H](Cc2c[nH]c3ccccc23)NC(=O)OC(C)(C)C)o1 |  | inconclusive [inhibitor, single point]
33 | CC(=O)OC[C@@H]1CN(Cc2ccccc2)C[C@H](n2cnc3c(Nc4ccccc4)ncnc32)O1 |  | inconclusive [inhibitor, single point]
34 | Cc1oc(-c2ccccc2F)nc1CN1CCC(C(=O)NC2CCCCCCC2)CC1 |  | inconclusive [inhibitor, single point]
35 | CCOc1ccc(N(CC(=O)N2CCC(Cc3ccccc3)CC2)S(C)(=O)=O)cc1 |  | inconclusive [inhibitor, single point]
36 | O=C(c1ccc(-n2cccn2)cc1)N1CCN(c2ncccc2C(F)(F)F)CC1 |  | inconclusive [inhibitor, single point]
37 | Cc1ccc(COC(=O)c2cc(S(=O)(=O)N3CCCCC3)ccc2N2CCOCC2)cc1 |  | inconclusive [inhibitor, single point]
38 | Cc1ccc(S(=O)(=O)NC2=NCCC2)cc1 | inactive: -1.21% | 
39 | Cc1cccc(N2CCN(C(=O)c3cc4c(=O)n(C)c5ccccc5c4n3C)CC2)c1C |  | inconclusive [inhibitor, single point]
40 | Cc1ccc(S(=O)(=O)Nc2cccc3ncccc23)cc1 |  | inconclusive [inhibitor, single point]
41 | O=C(OCC(=O)c1c[nH]c2ccccc12)c1ccc(F)c(S(=O)(=O)N2CCOCC2)c1 | inactive: -28% | 
42 | CC(=NCc1ccc2c(c1)OCO2)C1=C(O)c2ccccc2C1=O |  | inconclusive [inhibitor, partial curve]
43 | S=C1NC[C@H](c2ccccc2)N1CCCCC1CCCCC1 |  | inconclusive [inhibitor, single point]
44 | COC(=O)/C=C/c1ccc(OC(=O)OC)c(OC(=O)OC)c1 | inactive: -21.9% | 
45 | CCOC(=O)C1(CC2CCCCO2)CCN(C(=O)Nc2ccc(C)c(C)c2)CC1 (configuration not stated) | inactive: 6.12% | 
46 | C=CCNC(=O)c1ccc(Cn2c(=S)[nH]c3cc4c(cc3c2=O)OCO4)cc1 | inconclusive: -30.6% [inhibitor] | 
47 | COc1ccccc1/C=N/NC(=O)c1[nH]c(C)c(C(=O)N/N=C/c2ccccc2OC)c1C | inactive: 11.8% | 
48 | O=C(COc1ccc2c3c(c(=O)oc2c1)CCC3)N1CCN(c2ccccc2)CC1 |  | inconclusive [inhibitor, partial curve]

Row | SMILES | activity change, negative = growth inhibition | Potency
49 | Cc1cc2nc(C3CCN(C(=S)NCCCOC(C)C)CC3)[nH]c2cc1C | inactive: -7.04% | 
50 | O=C(COc1ccc(Br)cc1Cl)NC(=S)N1CCc2ccccc21 | inactive: -17.9% | 
51 | Cn1c(N)c(C(=O)CSc2nnc(-c3c[nH]c4ccccc34)n2C2CC2)c(=O)[nH]c1=O | inactive: -9.26% | 
52 | O=S(=O)(NCC(c1cccnc1)N1CCN(Cc2ccccc2)CC1)c1ccc(F)cc1 (configuration not stated) |  | inconclusive [inhibitor, single point]
53 | Brc1ccc(/C=N/Nc2ccccc2)cc1 |  | inconclusive [inhibitor, single point]
54 | CN(CCc1ccccc1)C(c1ccnc2ccccc12)c1nnnn1-c1ccc2c(c1)OCCO2 (configuration not stated) |  | inconclusive [inhibitor, single point]
55 | Cc1ccnc(N/C=C(/NC(=O)c2ccccc2)C(=O)N/N=C\c2ccc(Cl)cc2)n1 |  | inconclusive [inhibitor, single point]
56 | CCn1c(C)c(C(C)=O)c(N2CCN(C(c3ccccc3)c3ccccc3)CC2)nc1=S |  | active: 9.2 µM
57 | COCC(=O)N1CCC2(CCCN(c3cccc(-c4ccccc4)c3)C2)CC1 |  | inconclusive [inhibitor, single point]
58 | CCOCCn1c(N2CCCN(C)CC2)nc2ccccc21 | inactive: -6.74% | 
59 | COc1ccc(C(=O)CN2CCN(c3ccc(F)cc3)CC2)cc1OC | inactive: -25.6% | 
60 | COc1cc(OC)cc(-c2c(-c3cccs3)c3cc(-c4ccn[nH]4)ccc3n2C)c1 |  | inconclusive [inhibitor, single point]
61 | COc1cc(Cl)ccc1OCc1cc(C(=O)NC(C)Cc2cccnc2)no1 (configuration not stated) |  | inconclusive [inhibitor, single point]
62 | O=c1[nH][nH]c(=O)c2c1[nH]c(=S)n2Cc1ccccc1 | inactive: -0.406% | 
63 | CC(C)Oc1ccc(N2CC(C(=O)Nc3ccc(N4CCOCC4)cc3)CC2=O)cc1 (configuration not stated) |  | inconclusive [inhibitor, full curve, poor fit]
64 | COc1cc(/C=N\NC(=O)c2ccc(-c3ccccc3)cc2)cc(OC)c1OC(C)=O |  | inconclusive [inhibitor, single point]
65 | CCCCCC(=O)Nc1nc(C)c(-c2csc(Nc3ccccc3OC)n2)s1 |  | active: 23.1 µM
66 | CCCNc1c(NS(=O)(=O)c2cccs2)c(=O)oc2ccccc12 | inactive: -4.28% | 
67 | CCCCn1nnnc1C(c1cc2ccccc2o1)N1CCN(c2ncccc2C#N)CC1 (configuration not stated) |  | inconclusive [inhibitor, single point]
68 | CCCn1c(SCC(=O)c2ccc3c(c2)NC(=O)CO3)nc2ccccc21 |  | active: 10.3 µM
69 | O=C(COC(=O)c1cncc(Br)c1)Nc1nc(-c2ccc(F)cc2)cs1 |  | inconclusive [inhibitor, partial curve]
70 | COc1ccc(NC(=O)N2c3ccc(OC)cc3C(C)=CC2(C)C)cc1 |  | inconclusive [inhibitor, single point]
71 | COCCn1c(SCc2ccccc2F)nc2ccccc2c1=O |  | inconclusive [inhibitor, single point]
72 | Cc1cc(C)c(C#N)c(SCC(=O)N2CCCCC2)n1 | inactive: -2.72% | 
